# Assay results published in PubChem BioAssay AID2147 (National Center for Advancing Translational Sciences (NCATS), 2009).
# Several values for one entry are separate records, joined by “and”; a condition that tells them apart may be missing. Identical values can stand only once. In all, about 230,000 compounds went through this assay and about 3,600 (1.6%) were called active. This list was built around the results that the source calls inconclusive (neither active nor inactive); the mix of calls is not that of the screen. The call rests on the fitted dose curve; in most records, active means well fitted inhibition curve with a large enough effect (not every such curve was filed as active); inconclusive means small, poorly fitted or top-dose-only effect, or another doubt; inactive means no such curve, though single readings can be large or run the other way. Where the call is inconclusive, the potency comes from a doubtful curve fit.
# Target: Lysine-specific demethylase 4E (Homo sapiens) (UniProt B2RXH2)
# Chain of UniProt B2RXH2 (B2RXH2 whole entry, looked up, the tested form may be a part): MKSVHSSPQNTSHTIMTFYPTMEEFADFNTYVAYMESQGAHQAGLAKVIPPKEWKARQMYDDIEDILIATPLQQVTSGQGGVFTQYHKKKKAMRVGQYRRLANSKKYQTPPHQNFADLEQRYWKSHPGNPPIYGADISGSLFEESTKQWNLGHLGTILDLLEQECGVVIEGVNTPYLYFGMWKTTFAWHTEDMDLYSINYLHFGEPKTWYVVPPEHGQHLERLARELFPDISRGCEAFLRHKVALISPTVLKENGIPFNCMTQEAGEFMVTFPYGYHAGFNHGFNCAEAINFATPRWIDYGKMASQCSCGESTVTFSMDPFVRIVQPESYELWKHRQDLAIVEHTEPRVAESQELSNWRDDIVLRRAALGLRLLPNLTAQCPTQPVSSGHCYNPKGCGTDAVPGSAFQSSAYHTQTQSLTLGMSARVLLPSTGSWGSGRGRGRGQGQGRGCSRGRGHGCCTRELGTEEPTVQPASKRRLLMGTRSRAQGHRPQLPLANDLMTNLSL
# Test: qHTS Assay for Inhibitors of Human Jumonji Domain Containing 2E (JMJD2E)
# Conditions: JMJD2E catalytic domain, FDH-coupled NADH fluorescence (FDH is formaldehyde dehydrogenase); series mostly up to 57.1 µM
# Further: nearly all actives have a fitted effect of over 50% in size.
# Potency means the concentration at half of the fitted maximal effect; tags describe the fitted curve by direction and shape.
row,Structure (SMILES),Potency
1,Cc1ccc2nc(NCCCN3CCOCC3)c(C=NCCCN3CCOCC3)c(=O)n2c1,"inconclusive: 28.2 µM [inhibitor, partial curve]"
2,O=C(Nc1ccc(-c2noc(-c3ccccc3F)n2)cc1)c1cccs1,"inconclusive: 25.1 µM [inhibitor, partial curve]"
3,CCOc1ccc(N=Cc2c(C)[nH]n(-c3nc4ccccc4[nH]3)c2=O)cc1,"inconclusive: 31.6 µM [inhibitor, single point]"
4,CN(CC(=O)Nc1ccccc1-c1ccccc1)Cc1ccccc1Cl,inactive
5,N#CCCN/N=C(\Cc1nc2ccccc2[nH]1)c1ccccc1,"inconclusive: 31.6 µM [inhibitor, single point]"
6,Oc1c(CN2CCN(c3ccccn3)CC2)cc(Cl)c2cccnc12,"inconclusive: 39.8 µM [inhibitor, single point]"
7,O=C1CSC(c2cn(-c3ccccc3)nc2-c2cc3ccccc3oc2=O)N1Cc1ccco1 (stereo unspecified),"inconclusive: 35.5 µM [inhibitor, partial curve]"
8,CN(C)S(=O)(=O)c1ccc(N2CCCC2)c(C(=O)Nc2nc(-c3ccc(F)cc3)cs2)c1,"inconclusive: 14.1 µM [inhibitor, partial curve]"
9,CCCN1CCN(C(c2cc3cc4c(cc3[nH]c2=O)OCO4)c2nnnn2C(C)(C)C)CC1 (stereo unspecified),"inconclusive: 28.2 µM [inhibitor, partial curve]"
10,O=C(NC(=S)Nc1cnc2ccccc2c1)c1ccccc1,"inconclusive: 25.1 µM [inhibitor, partial curve]"
11,O=C1CCC(CCC(=O)N2CCCC(C(=O)c3ccc4c5c(cccc35)CC4)C2)=NN1 (stereo unspecified),"inconclusive: 28.2 µM [inhibitor, partial curve]"
12,COc1c2ccc(C(=O)NCc3cc(C(F)(F)F)cc(C(F)(F)F)c3)cc2nn1C,"inconclusive: 10 µM [inhibitor, partial curve]"
13,CC(C)c1nc(N2CCN(C(=O)c3ccccc3)CC2)c(C#N)c2c1COC(C)(C)C2,"inconclusive: 3.55 µM [inhibitor, full curve]"
14,O=C(N/N=C(\CC(=O)c1cccs1)C(F)(F)F)c1ccncc1,"inconclusive: 12.6 µM [inhibitor, partial curve, poor fit]"
15,Nc1nnc(-c2ccc(Cl)cc2Cl)s1,"inconclusive: 25.1 µM [inhibitor, partial curve]"
16,CC(Oc1ccccc1)C(=O)Nc1cccc(F)c1 (stereo unspecified),inactive
17,O=C(Cn1nnc(-c2ccccc2-n2cnnn2)n1)c1ccccc1,inactive
18,Cc1ccccc1Nc1c(-c2ccncc2)nc2ccc(Cl)cn12,"inconclusive: 20 µM [inhibitor, partial curve]"
19,COc1c(-c2ccc(O)c(O)c2)oc2cc(O)cc(O)c2c1=O,active: 20 µM and active: 14.1 µM
20,O=C(Nc1ccc(Cl)cc1)Nc1ccc(N2CCCC2)c(S(=O)(=O)Nc2ccccc2Cl)c1,"inconclusive: 35.5 µM [inhibitor, single point]"
21,COc1ccc(NC(=O)c2oc3cc(C)c(C)cc3c2C)c(OC)c1,"inconclusive: 5.01 µM [inhibitor, full curve]"
22,O=C(COc1cccc2ccccc12)N1CCN(c2ccccc2)CC1,"inconclusive: 28.2 µM [inhibitor, partial curve]"
23,CCn1c(CCC(=O)O)nc2cc(S(=O)(=O)N(C)C)ccc21,inactive
24,COc1ccc(NC(=O)CCN2CCN(S(=O)(=O)c3cc(Cl)ccc3Cl)CC2)cc1,inactive

row,Structure (SMILES),Potency
1,FC(F)(F)c1cnc(/C=C/Nc2ccccc2Cl)c(Cl)c1,inactive
2,N#CC(C#N)=C1NC2(CCCCC2)Cc2ccccc21,inactive
3,NS(=O)(=O)c1ccc(N2CCCC2=O)c([N+](=O)[O-])c1,"inconclusive: 31.6 µM [inhibitor, partial curve]"
4,CC(C)c1nnc(NC(=O)CC(=O)Nc2ccccc2C(=O)O)s1,"inconclusive: 25.1 µM [inhibitor, single point]"
5,COc1ccc(OC)c2[nH]c(=O)c(CCNC(=O)c3ccc4c(c3)OCO4)cc12,"inconclusive: 25.1 µM [inhibitor, partial curve]"
6,Cc1ccc2nc(-c3ccc(NC(=S)NC(=O)C(C)C)cc3)sc2c1,"inconclusive: 20 µM [inhibitor, partial curve]"
7,C/C=C\C=C/C(=O)Nc1cccc(C2=NOC3(C2)C[C@@H](C(N)=O)N(C(=O)C2(C)CC2)C3)c1 (stereo partly specified),inactive
8,O=C(Nc1ccc(C(=O)Oc2ccccc2)c(O)c1)c1ccco1,"inconclusive: 28.2 µM [inhibitor, single point]"
9,O=C(COc1ccccc1-c1ccccc1)NNC(=O)NC1CCCCC1,inactive
10,c1ccc2sc(N3CCCN(Cc4nc(-c5cnccn5)no4)CC3)nc2c1,inactive
11,CN(C)Cc1c(O)ccc2c3c(c(=O)oc12)CCCCC3,"inconclusive: 25.1 µM [inhibitor, partial curve]"
12,O=C(CCC1CCCN(C(=O)c2cccs2)C1)N1CCN(c2ccccn2)CC1 (stereo unspecified),"inconclusive: 39.8 µM [inhibitor, single point]"
13,O=C(Nc1ccc(NC(=O)c2cc3ccccc3o2)cc1)c1ccc2c(c1)OCCO2,"inconclusive: 22.4 µM [inhibitor, partial curve]"
14,COC(=O)c1cccn(CC(=O)c2ccc(Cl)cc2)c1=O,"inconclusive: 39.8 µM [inhibitor, single point]"
15,CN1CC(C(=O)O)Cc2c1ccc1ccccc21 (stereo unspecified),"inconclusive: 7.94 µM [inhibitor, partial curve]"
16,O=[N+]([O-])c1ccc(C=Nc2ccc(Cl)cc2Cl)s1,active: 22.4 µM
17,O=C(c1cccs1)N1CCN(CCCc2ccccc2)CC1,"inconclusive: 39.8 µM [inhibitor, single point]"
18,O=C(O)c1ccc(COc2ccc(Cl)cc2)o1,inactive
19,O=C1/C(=C/c2ccc(C(=O)O)cc2)CCC/C1=C\c1ccc(C(=O)O)cc1,inactive
20,CCOC(=O)N1CCC(NC(=O)C2CCN(C(=O)N3CC(C)Oc4ccccc43)CC2)CC1 (stereo unspecified),inactive
21,Cc1cc(-c2ccccc2)[nH]c(=O)c1S(=O)(=O)c1ccc(Cl)cc1,"inconclusive: 3.98 µM [inhibitor, full curve]"
22,O=C(N/N=C/c1ccccc1Br)c1ccc(CSc2cccc3cccnc23)cc1,"inconclusive: 14.1 µM [inhibitor, partial curve]"
23,CCCN(CC1CC1)c1nc(N)c2c(N)nc(OC)cc2c1C#N,"inconclusive: 31.6 µM [inhibitor, partial curve]"
24,c1ccc(-c2nc3nonc3c3nc4ccccc4n23)cc1,"inconclusive: 31.6 µM [inhibitor, partial curve]"

row,Structure (SMILES),Potency
1,COc1ccc(-c2cc3nc(C)c(CCC(=O)NC(C)CCc4ccco4)c(C)n3n2)c(OC)c1 (stereo unspecified),"inconclusive: 28.2 µM [inhibitor, partial curve]"
2,O=C(NCc1ccccn1)C(=O)N/N=C/c1ccccc1O,active: 6.31 µM
3,O=C(CNC(=O)C1COc2ccccc2O1)N/N=C\c1ccc(Cl)cc1 (stereo unspecified),inactive
4,O=C(Cc1coc2ccc3ccccc3c12)NC1CCCc2ccccc21 (stereo unspecified),"inconclusive: 28.2 µM [inhibitor, single point]"
5,Cc1c(C(=O)O)oc2c1ccc1ccccc12,"inconclusive: 31.6 µM [inhibitor, single point]"
6,CCn1nc([N+](=O)[O-])c2c(-c3nc4ccccc4o3)c(N)n(CCCOC)c2c1=O,"inconclusive: 35.5 µM [inhibitor, single point]"
7,Cc1nc2ccccc2nc1OCC(=O)Nc1ccc(F)cc1,"inconclusive: 31.6 µM [inhibitor, single point]"
8,Cc1nc2c(-c3ccc(F)cc3)c(C)nn2c(C)c1CCC(=O)Nc1ccc(F)cc1F,"inconclusive: 39.8 µM [inhibitor, single point]"
9,Nc1cccc(B(O)O)c1,"inconclusive: 25.1 µM [inhibitor, single point]"
10,CCC(C(=O)OCCN(CC)CC)c1ccccc1 (stereo unspecified),"inconclusive: 39.8 µM [inhibitor, single point]"
11,CCCCNC(=S)N(C)/N=C/c1c(C)[nH]c2ccccc12,"inconclusive: 39.8 µM [inhibitor, single point]"
12,Cc1nc2c3c(sc2c(=O)[nH]1)NC(=O)CC3c1ccccc1Cl (stereo unspecified),inactive
13,O=C(O)C=C1C2CC3CC(C2)CC1C3,inactive
14,COC(=O)Nc1nc2ccc(S(=O)c3ccccc3)cc2[nH]1 (stereo unspecified),"inconclusive: 35.5 µM [inhibitor, single point]"
15,O=C1c2cccnc2C(O)N1Cc1ccco1 (stereo unspecified),inactive
16,CC(=O)Nc1nonc1-c1nc2ccccc2n1Cc1ccccn1,"inconclusive: 28.2 µM [inhibitor, single point]"
17,COC(=O)[C@@H](NC(=O)O[C@@H]1C(=O)c2cc(OC)ccc2O[C@H]1c1cccc(OC)c1)C(C)C,"inconclusive: 31.6 µM [inhibitor, single point]"
18,O=C1c2ccccc2C(=O)c2c(O)ccc(O)c21,inactive
19,O=C(NC12CC3CC(CC(C3)C1)C2)N1CCN(c2ccccn2)CC1,"inconclusive: 28.2 µM [inhibitor, single point]"
20,COc1cnc(SCc2ccc(Cl)cc2Cl)nc1Cl,inactive
21,CC(C)N=C1NN=C(c2cccs2)C(CC(=O)O)S1 (stereo unspecified),"inconclusive: 39.8 µM [inhibitor, single point]"
22,O=C1c2ccccc2C(=O)N1CCCCN(C(=O)c1cc([N+](=O)[O-])ccc1Cl)c1ccc(Cl)cc1,inactive
23,COc1ccc(NC(=O)c2ccco2)cc1NC(=O)c1ccco1,inactive
